# System: MLKL phosphorylation, HT29-L23 human colorectal adenocarcinoma cells
# Assay: cells
# Conditions: read-out: pMLKL HCS Cell Assay (IC50, uM)
row,SMILES,IC50
1,"COc1ncc(-c2cc(C(F)(F)F)c3c(N)ncnn23)cc1C(=O)N[C@@H]1CN(C(C)CC(O)C(F)(F)F)C[C@@H]1F (single isomer, unassigned) [Example 1381]",0.071 µM
2,"Cc1nc(C)c(-c2cc(C(F)(F)F)c3c(N)ncnn23)cc1C(=O)N[C@@H]1CN(C(=O)c2ccc(F)c(F)c2)C[C@@H]1F [Example 1198, 5-[4-amino-5-(trifluoromethyl)pyrrolo[2,1-f][1,2,4]triazin-7-yl]-N-[(3R,4S)-1-(3,4-difluorobenzoyl)-4-fluoropyrrolidin-3-yl]-2,6-dimethylpyridine-3-carboxamide]",0.067 µM
3,"Nc1ncnn2c(-c3cccc(C(=O)Nc4cnn(Cc5ccccc5)c4)c3)c(F)cc12 [Example 71, 3-{4-amino-6-fluoropyrrolo[2,1-f][1,2,4]triazin-7-yl}-N-(1-benzyl-1H-pyrazol-4-yl)benzamide]",0.065 µM
4,"COc1ncc(-c2c(C#N)cc3c(N)ncnn23)cc1C(=O)N[C@H](C)c1cc(OC(F)(F)F)ccc1F [Example 548, (R)-5-(4-amino-6-cyanopyrrolo[2,1-f][1,2,4]triazin-7-yl)-N-(1-(2-fluoro-5-(trifluoromethoxy)phenyl)ethyl)-2-methoxynicotinamide]",0.091 µM
5,"COc1ncc(-c2cc(C(F)(F)F)c3c(N)ncnn23)cc1C(=O)N[C@@H]1CN(C(=O)C2CC(O)(C(F)(F)F)C2)C[C@@H]1F (stereo partly drawn) [Example 1547, 5-(4-Amino-5-(trifluoromethyl)pyrrolo[2,1-f][1,2,4]triazin-7-yl)-N-((3R,4S)-4-fluoro-1-(3-hydroxy-3-(trifluoromethyl)cyclobutane-1-carbonyl)pyrrolidin-3-yl)-2-methoxynicotinamide]",0.034 µM
6,"COc1ncc(-c2cc(C(F)(F)F)c3c(N)ncnn23)cc1C(=O)N[C@@H]1CN(C(=O)CC(C)C)C[C@@H]1F [Example 335, 5-[4-amino-5-(trifluoromethyl)pyrrolo[2,1-f][1,2,4]triazin-7-yl]-N-[(3R,4S)-4-fluoro-1-(3-methylbutanoyl)pyrrolidin-3-yl]-2-methoxypyridine-3-carboxamide]",0.009 µM
7,"COc1ncc(-c2cc(C(F)(F)F)c3c(N)ncnn23)cc1C(=O)N[C@@H]1CN(C(=O)COC(C)(C)C)C[C@@H]1F [Example 1218, 5-[4-amino-5-(trifluoromethyl)pyrrolo[2,1-f][1,2,4]triazin-7-yl]-N-[(3R,4S)-1-[2-(tert-butoxy)acetyl]-4-fluoropyrrolidin-3-yl]-2-methoxypyridine-3-carboxamide]",0.098 µM
8,"CCC(C)OC(=O)N1C[C@H](F)[C@H](NC(=O)c2cc(-c3cc(C(F)(F)F)c4c(N)ncnn34)cnc2OC)C1 (stereo partly drawn) [Example 1424, butan-2-yl (3R,4S)-3-{5-[4-amino-5-(trifluoromethyl)pyrrolo[2,1-f][1,2,4]triazin-7-yl]-2-methoxypyridine-3-amido}-4-fluoropyrrolidine-1-carboxylate]",0.0025 µM
9,"Cc1ccc(-c2cc(C(F)(F)F)c3c(N)ncnn23)cc1C(=O)N[C@@H]1CN(C(=O)C2CCC(F)(F)C2)C[C@@H]1F (stereo partly drawn) [Example 989, 5-[4-amino-5-(trifluoromethyl)pyrrolo[2,1-f][1,2,4]triazin-7-yl]-N-[(3R,4S)-1-(3,3-difluorocyclopentanecarbonyl)-4-fluoropyrrolidin-3-yl]-2-methylbenzamide]",0.0016 µM
10,"COc1ncc(-c2cc(C(F)(F)F)c3c(N)ncnn23)cc1C(=O)N[C@@H]1CN(C(=O)OCC2CC2)C[C@@H]1F [Example 1439, cyclopropylmethyl (3R,4S)-3-{5-[4-amino-5-(trifluoromethyl)pyrrolo[2,1-f][1,2,4]triazin-7-yl]-2-methoxypyridine-3-amido}-4-fluoropyrrolidine-1-carboxylate]",0.0019 µM
11,"[2H]C([2H])([2H])Oc1ncc(-c2cc(C(F)(F)F)c3c(N)ncnn23)cc1C(=O)N[C@@H]1CN(C(=O)C(C)(C)F)C[C@@H]1F [Example 381, 5-[4-amino-5-(trifluoromethyl)pyrrolo [2,1-f][1,2,4]triazin-7-yl]-N-[(3R,4S)-4-fluoro-1-(2-fluoro-2-methylpropanoyl)pyrrolidin-3-yl]-2-(deutero)methoxy-pyridine-3-carboxamide]",0.026 µM
12,"CCOCCN1CC(F)C(NC(=O)c2cc(-c3cc(C(F)(F)F)c4c(N)ncnn34)cnc2OC)C1 (racemic) [Example 192, 5-[4-amino-5-(trifluoromethyl)pyrrolo[2,1-f][1,2,4]triazin-7-yl]-N-[1-(2-ethoxyethyl)-4-fluoropyrrolidin-3-yl]-2-methoxypyridine-3-carboxamide]",0.282 µM
13,"CNCc1cc(-c2cnc(OC)c(C(=O)N[C@@H]3CN(C(=O)C4CC(F)(F)C4)C[C@@H]3F)c2)n2ncnc(N)c12 [Example 486, 5-{4-amino-5-[(methylamino)methyl]pyrrolo[2,1-f][1,2,4]triazin-7-yl}-N-[(3R,4S)-1-(3,3-difluorocyclobutanecarbonyl)-4-fluoropyrrolidin-3-yl]-2-methoxypyridine-3-carboxamide]",0.022 µM
14,"COc1cc(C(=O)N[C@@H]2CN(C(=O)C(C)(C)F)C[C@@H]2F)cc(-c2cc(C(F)(F)F)c3c(N)ncnn23)c1 [Example 585, 3-[4-amino-5-(trifluoromethyl)pyrrolo[2,1-f][1,2,4]triazin-7-yl]-N-[(3R,4S)-4-fluoro-1-(2-fluoro-2-methylpropanoyl)pyrrolidin-3-yl]-5-methoxybenzamide]",0.049 µM
15,"COc1ncc(-c2cc(F)c3c(N)ncnn23)cc1C(=O)N[C@@H]1CN(C(=O)[C@@](C)(O)C(F)(F)F)C[C@@H]1F [Example 1605, 5-{4-amino-5-fluoropyrrolo[2,1-f][1,2,4]triazin-7-yl}-N-[(3R,4S)-4-fluoro-1-[(2R)-3,3,3-trifluoro-2-hydroxy-2-methylpropanoyl]pyrrolidin-3-yl]-2-methoxypyridine-3-carboxamide]",0.0084 µM
16,"Cc1ncc(-c2cc(C(F)(F)F)c3c(N)ncnn23)cc1C(=O)NCC[C@@H](O)c1ccc(Cl)cc1 [Example 165, 5-[4-amino-5-(trifluoromethyl)pyrrolo[2,1-f][1,2,4]triazin-7-yl]-N-[(3R)-3-(4-chlorophenyl)-3-hydroxypropyl]-2-methylpyridine-3-carboxamide]",0.0011 µM
17,"Nc1ncnn2c(-c3cc(C(=O)N[C@@H]4CN(C(=O)c5ccc(F)cc5)C[C@@H]4F)c(Cl)cc3F)cc(C(F)(F)F)c12 [Example 405, 5-[4-amino-5-(trifluoromethyl)pyrrolo[2,1-f][1,2,4]triazin-7-yl]-2-chloro-4-fluoro-N-[(3R,4S)-4-fluoro-1-(4-fluorobenzoyl)pyrrolidin-3-yl]benzamide]",0.0085 µM
18,"CC(CCNC(=O)c1cccc(-c2cc(C#N)c3c(N)ncnn23)c1)c1ccccc1 (stereo not drawn) [Example 7, 3-{4-amino-5-cyanopyrrolo[2,1-f][1,2,4]triazin-7-yl}-N-(3-phenylbutyl)benzamide]",0.062 µM
19,"Cc1cc(F)c(-c2cc(C(F)(F)F)c3c(N)ncnn23)cc1C(=O)N[C@@H]1CN(C(=O)C2(O)CCC2)C[C@@H]1F [Example 804, 5-[4-amino-5-(trifluoromethyl)pyrrolo[2,1-f][1,2,4]triazin-7-yl]-4-fluoro-N-[(3R,4S)-4-fluoro-1-(1-hydroxycyclobutanecarbonyl)pyrrolidin-3-yl]-2-methylbenzamide]",0.0049 µM
20,"COc1ncc(-c2cc(C(F)(F)F)c3c(N)ncnn23)cc1C(=O)N[C@@H]1CN(CC(O)(c2ccccc2)C(F)(F)F)C[C@@H]1F (stereo partly drawn) [Example 1824, 5-(4-amino-5-(trifluoromethyl)pyrrolo[2,1-f][1,2,4]triazin-7-yl)-N-((3R,4S)-4-fluoro-1-(3,3,3-trifluoro-2-hydroxy-2-phenylpropyl)pyrrolidin-3-yl)-2-methoxynicotinamide]",0.014 µM
21,"Cc1ccc(-c2cc(C(F)(F)F)c3c(N)ncnn23)cc1C(=O)N[C@@H]1CN(C(=O)c2ccccn2)C[C@@H]1F [Example 1019, 5-[4-amino-5-(trifluoromethyl)pyrrolo[2,1-f][1,2,4]triazin-7-yl]-N-[(3R,4S)-4-fluoro-1-(pyridine-2-carbonyl)pyrrolidin-3-yl]-2-methylbenzamide]",0.0081 µM
22,COc1ncc(-c2ccc3c(NCCO)ncnn23)cc1C(=O)NCC[C@H](O)c1ccc(Cl)cc1 [Example 54],0.263 µM
23,"Cc1ncc(-c2cc(C(F)(F)F)c3c(N)ncnn23)cc1C(=O)N[C@@H]1CN(C(=O)C2CCC(F)(F)C2)C[C@@H]1CF (stereo partly drawn) [Example 22, 5-[4-amino-5-(trifluoromethyl)pyrrolo[2,1-f][1,2,4]triazin-7-yl]-N-[(3S,4S)-1-(3,3-difluorocyclopentanecarbonyl)-4-(fluoromethyl)pyrrolidin-3-yl]-2-methylpyridine-3-carboxamide]",0.167 µM
24,"Cc1ncc(-c2cc(C(F)(F)F)c3c(N)ncnn23)cc1C(=O)Nc1cn(CC(C)(O)C(F)(F)F)cn1 (stereo not drawn) [Example 1780, 5-(4-amino-5-(trifluoromethyl)pyrrolo[2,1-f][1,2,4]triazin-7-yl)-2-methyl-N-(1-(3,3,3-trifluoro-2-hydroxy-2-methylpropyl)-1H-imidazol-4-yl)nicotinamide]",0.039 µM
25,"COc1ncc(-c2cc(C(F)(F)F)c3c(N)ncnn23)cc1C(=O)NC1CN(Cc2ccc3ccccc3n2)CC1F (racemic) [Example 225, 5-[4-amino-5-(trifluoromethyl)pyrrolo[2,1-f][1,2,4]triazin-7-yl]-N-{4-fluoro-1-[(quinolin-2-yl)methyl]pyrrolidin-3-yl}-2-methoxypyridine-3-carboxamide]",0.021 µM
26,"COc1ncc(-c2cc(CN3CCC(F)(F)CC3)c3c(N)ncnn23)cc1C(=O)N[C@@H]1CN(C(=O)C(C)(C)C(F)(F)F)C[C@@H]1F [Example 1622, 5-{4-amino-5-[(4,4-difluoropiperidin-1-yl)methyl]pyrrolo[2,1-f][1,2,4]triazin-7-yl}-N-[(3R,4S)-4-fluoro-1-(3,3,3-trifluoro-2,2-dimethylpropanoyl)pyrrolidin-3-yl]-2-methoxypyridine-3-carboxamide]",0.0011 µM
27,"Nc1ncnn2c(-c3ccc(C(F)(F)F)c(C(=O)N[C@@H]4CN(C(=O)CC(F)(F)F)C[C@@H]4F)c3)cc(C(F)(F)F)c12 [Example 901, 5-[4-amino-5-(trifluoromethyl)pyrrolo[2,1-f][1,2,4]triazin-7-yl]-N-[(3R,4S)-4-fluoro-1-(3,3,3-trifluoropropanoyl)pyrrolidin-3-yl]-2-(trifluoromethyl)benzamide]",0.141 µM

# Source: patent US11618753B2 (priority 2018, dated 2023)
